This note sets out measurements from publication PMC8986152.

Sequences of proteins named here, by UniProt entry; tags and fusion partners are left off. A change or cut given only in a name is not applied to a line headed by its entry. A line that says so, or that is headed by a name, gives the form on record, which may keep a tag or linker.
VSV-PDE4D7 (Q08499-11, form named): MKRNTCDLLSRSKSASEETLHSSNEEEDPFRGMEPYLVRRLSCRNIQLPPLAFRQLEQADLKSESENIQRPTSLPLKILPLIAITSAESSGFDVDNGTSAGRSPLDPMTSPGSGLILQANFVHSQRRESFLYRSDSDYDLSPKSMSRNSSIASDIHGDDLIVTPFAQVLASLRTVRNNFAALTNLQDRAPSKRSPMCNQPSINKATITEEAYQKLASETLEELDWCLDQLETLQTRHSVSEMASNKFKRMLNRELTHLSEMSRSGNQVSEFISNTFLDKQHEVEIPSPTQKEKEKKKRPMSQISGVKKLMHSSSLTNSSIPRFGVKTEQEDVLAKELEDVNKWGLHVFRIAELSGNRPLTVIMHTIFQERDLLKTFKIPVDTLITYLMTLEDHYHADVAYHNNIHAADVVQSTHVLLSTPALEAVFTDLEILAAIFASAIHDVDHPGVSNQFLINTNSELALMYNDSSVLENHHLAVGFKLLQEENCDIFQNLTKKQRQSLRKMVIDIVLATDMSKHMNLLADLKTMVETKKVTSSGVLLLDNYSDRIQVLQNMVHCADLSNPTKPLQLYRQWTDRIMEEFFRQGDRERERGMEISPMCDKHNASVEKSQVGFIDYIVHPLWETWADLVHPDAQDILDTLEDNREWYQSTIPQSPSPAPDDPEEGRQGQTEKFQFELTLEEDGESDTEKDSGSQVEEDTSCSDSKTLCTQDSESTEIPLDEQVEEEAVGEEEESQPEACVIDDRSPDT

These are yes or no findings as the source states them, for the method shown. Binding seen in cells or lysates may run through a third protein. Some results given as binding are weak or reduced against the parent protein; the word gives no strength. For some assays here: Where a sequence is shown, tags or fusion partners need not be part of it.

The target of assay [1] is T1, myc-POPDC1 (UniProt Q8NE79).
T1 sequence: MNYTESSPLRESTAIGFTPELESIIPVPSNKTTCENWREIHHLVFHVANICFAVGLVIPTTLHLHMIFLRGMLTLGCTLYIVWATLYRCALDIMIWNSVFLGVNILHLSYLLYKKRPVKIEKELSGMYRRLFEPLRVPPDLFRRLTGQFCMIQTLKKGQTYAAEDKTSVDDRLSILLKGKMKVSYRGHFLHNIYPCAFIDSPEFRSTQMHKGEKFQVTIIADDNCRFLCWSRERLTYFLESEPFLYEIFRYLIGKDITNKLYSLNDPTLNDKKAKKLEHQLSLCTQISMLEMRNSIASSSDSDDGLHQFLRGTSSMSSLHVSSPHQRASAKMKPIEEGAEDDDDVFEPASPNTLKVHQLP
As to the kind of experiment: co-IP; HEK293 transiently transfected with myc-POPDC1 and one VSV-tagged PDE4; POPDC1 precipitated by myc (myc-agarose resin / Protein G sepharose, 4 °C overnight), PDE4 detected by VSV blot; CO-IP buffer with 150 mM NaCl, 1% Triton X-100.

Assay [2] addresses T2, POPDC1, endogenous in neonatal rat ventricular myocytes (rat (endogenous in neonatal rat ventricular myocytes)) (UniProt Q3BCU4).
T2 sequence: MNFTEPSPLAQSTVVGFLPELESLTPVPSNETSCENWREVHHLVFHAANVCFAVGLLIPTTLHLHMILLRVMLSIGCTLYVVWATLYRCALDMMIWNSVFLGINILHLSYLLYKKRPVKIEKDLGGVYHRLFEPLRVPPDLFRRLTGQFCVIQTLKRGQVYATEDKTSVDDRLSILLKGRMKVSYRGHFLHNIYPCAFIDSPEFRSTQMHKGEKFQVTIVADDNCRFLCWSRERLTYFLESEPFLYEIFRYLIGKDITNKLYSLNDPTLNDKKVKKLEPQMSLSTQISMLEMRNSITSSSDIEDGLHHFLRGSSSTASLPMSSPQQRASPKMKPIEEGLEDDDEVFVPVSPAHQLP
Kind of assay: co-IP; endogenous proteins in NRVM lysate; POPDC1 (BVES) antibody precipitation, blotted for PDE4A5.

Assay [3] has as its target T2, POPDC1, endogenous in neonatal rat ventricular myocytes (rat (endogenous in neonatal rat ventricular myocytes)). As to the kind of experiment: proximity ligation; Duolink PLA in fixed NRVMs, endogenous proteins; BVES antibody with pan-PDE4A, PDE4B or PDE4D antibody.
Assay [4] has the same target. Kind of assay: proximity ligation; NRVMs, endogenous proteins, treated with 10 μM scrambled or disruptor peptide for two hours before fixation; the blocked pair.
In assay [5] the target is T1, myc-POPDC1. As to the kind of experiment: co-IP; HEK293 transfected with POPDC1-myc and PDE4A5-VSV, cells treated with 10 μM scrambled or disruptor peptide; myc-conjugated resin; the blocked pair.
Assay [6] addresses T1, myc-POPDC1. Kind of assay: proximity ligation; Duolink PLA in fixed HEK293 cells transiently transfected with POPDC1 and VSV-tagged PDE4A.
Assay [7] addresses T1, myc-POPDC1. As to the kind of experiment: co-IP; HEK293 transiently transfected with myc-POPDC1 and one VSV-tagged PDE4; POPDC1 precipitated by myc (myc-agarose resin / Protein G sepharose, 4 °C overnight), PDE4 detected by VSV blot; CO-IP buffer with 150 mM NaCl, 1% Triton X-100. This is another data set of the same source.
Assay [8] has as its target T1, myc-POPDC1. As to the kind of experiment: proximity ligation; HEK293 transfected with POPDC1-myc and PDE4A5-VSV, treated with 10 μM scrambled or disruptor peptide for two hours before fixation; the blocked pair.

As to “VSV-PDE4B1 (from UniProt Q07343-1 1-736) (enzyme)”, in the assay with myc-POPDC1 [1], the binding result is listed as “no binding”.
On the same count and under the same terms, to “VSV-PDE4D7 (from UniProt Q08499-11 1-748) (enzyme)” belongs “no binding”.

B1: PDE4A (PDE4A5), endogenous in neonatal rat ventricular myocytes (enzyme, UniProt P54748-1 1-844)
chain: MEPPAAPSERSLSLSLPGPREGQATLKPPPQHLWRQPRTPIRIQQRGYPDSAERSETERSPHRPIERADAVDTGDRPGLRTTRMSWPSSFHGTGTGGGSSRRLEAENGPTPSPGRSPLDSQASPGLVLHAGATTSQRRESFLYRSDSDYDMSPKAVSRSSSVASEAHAEDLIVTPFAQVLASLRSVRSNFSLLTNVPIPSNKRSPLGGPPSVCKATLSEETCQQLARETLEELDWCLEQLETMQTYRSVSEMASHKFKRMLNRELTHLSEMSRSGNQVSEYISNTFLDKQNEVEIPSPTPRQRAFQQPPPSVLRQSQPMSQITGLKKLVHTGSLNTNVPRFGVKTDQEDLLAQELENLSKWGLNIFCVSEYAGGRSLSCIMYTIFQERDLLKKFHIPVDTMMMYMLTLEDHYHADVAYHNSLHAADVLQSTHVLLATPALDAVFTDLEILAALFAAAIHDVDHPGVSNQFLINTNSELALMYNDESVLENHHLAVGFKLLQEENCDIFQNLSKRQRQSLRKMVIDMVLATDMSKHMTLLADLKTMVETKKVTSSGVLLLDNYSDRIQVLRNMVHCADLSNPTKPLELYRQWTDRIMAEFFQQGDRERERGMEISPMCDKHTASVEKSQVGFIDYIVHPLWETWADLVHPDAQDILDTLEDNRDWYHSAIRQSPSPPLEEEPGGLGHPSLPDKFQFELTLEEEEEEDSLEVPGLPTTEETFLAAEDARAQAVDWSKVKGPSTTVVEVAERLKQETASAYGAPQESMEAVGCSFSPGTPILPDVRTLSSSEEAPGLLGLPSTAAEVEAPRDHLAATRACSACSGTSGDNSAIISAPGRWGSGGDPA
Turning to B1, the binding result in assay [2], in assay [3] and in assay [4] was “binds” each time.

B2: VSV-PDE4A5 (enzyme, UniProt O89084 1-844)
chain: MEPPAAPSERSLSLSLPGPREGQATLKPPPQHLWRQPRTPIRIQQRGYSDSAERSEPERSPHRPIERADAVDTGDRPGLRTTRMSWPSSFHGTGTGGGSSRRLEAENGPTPSPGRSPLDSQASPGLMLHAGAATSQRRESFLYRSDSDYDMSPKTMSRNSSVASEAHGEDLIVTPFAQVLASLRNVRSNFSLLTNVPIPSNKRSPLGGPPSVCKATLSEETCQQLARETLEELDWCLEQLETMQTYRSVSEMASHKFKRMLNRELTHLSEMSRSGNQVSEYISNTFLDKQHEVEIPSPTPRQRPFQQPPPAAVQQAQPMSQITGLKKLVHTGSLNINVPRFGVKTDQEDLLAQELENLSKWGLNIFCVSEYAGGRSLSCIMYTIFQERDLLKKFHIPVDTMMTYMLTLEDHYHADVAYHNSLHAADVLQSTHVLLATPALDAVFTDLEILAALFAAAIHDVDHPGVSNQFLINTNSELALMYNDESVLENHHLAVGFKLLQEENCDIFQNLSKRQRQSLRKMVIDMVLATDMSKHMTLLADLKTMVETKKVTSSGVLLLDNYSDRIQVLRNMVHCADLSNPTKPLELYRQWTDRIMAEFFQQGDRERERGMEISPMCDKHTASVEKSQVGFIDYIVHPLWETWADLVHPDAQDILDTLEDNRDWYHSAIRQSPSPTLEEEPGVLSDPALPDKFQFELTLEEEDEEDSLEVPGLPCTEETLLAPHDTRAQAMEQSKVKGQSPAVVEVAESLKQETASAHGAPEESAEAVGHSFSLETSILPDLRTLSPSEEAQGLLGLPSMAAEVEAPRDHLAAMRACSACSGTSGDNSAVISAPGRWGSGGDPA
As to B2, the binding entry with myc-POPDC1 [5], with myc-POPDC1 [6], with myc-POPDC1 [7] and in the assay with myc-POPDC1 [8] was “binds” throughout.

B3: PDE4D, endogenous in neonatal rat ventricular myocytes (enzyme, UniProt P14270 1-803)
chain: MEAEGSSVPARAGSHEGSDSSGGAALKAPKHLWRHEQHHQYPLRQPQFRLLHPHHHLPPPPPPSPQPQLQPPPPPPLPPPPPPPGATRGRYASSGASRVRHRGYSDTERYLYCRAMDRTSYAVETGHRPGLKKSRMSWPSSFQGLRRFDVDNGTSAGRSPLDPMTSPGSGLILQANFVHSQRRESFLYRSDSDYDLSPKSMSRNSSIASDIHGDDLIVTPFAQVLASLRTVRNNFAALTNLQDRAPSKRSPMCNQPSINKATITEEAYQKLASETLEELDWCLDQLETLQTRHSVSEMASNKFKRMLNRELTHLSEMSRSGNQVSEYISNTFLDKQHEVEIPSPTQKEKEKKKRPMSQISGVKKLMHSSSLTNSCIPRFGVKTEQEDVLAKELEDVNKWGLHVFRIAELSGNRPLTVIMHTIFQERDLLKTFKIPVDTLITYLMTLEDHYHADVAYHNNIHAADVVQSTHVLLSTPALEAVFTDLEILAAIFASAIHDVDHPGVSNQFLINTNSELALMYNDSSVLENHHLAVGFKLLQEENCDIFQNLTKKQRQSLRKMAIDIVLATDMSKHMNLLADLKTMVETKKVTSSGVLLLDNYSDRIQVLQNMVHCADLSNPTKPLQLYRQWTDRIMEEFFRQGDRERERGMEISPMCDKHNASVEKSQVGFIDYIVHPLWETWADLVHPDAQDILDTLEDNREWYQSTIPQSPSPAPDDQEDGRQGQTEKFQFELTLEEDGESDTEKDSGSQVEEDTSCSDSKTLCTQDSESTEIPLDEQVEEEAVAEEESQPQTGVADDCCPDT
For the molecule B3, the binding result in assay [3] is recorded as “binds weakly”.

B4: PDE4B, endogenous in neonatal rat ventricular myocytes (enzyme, UniProt P14646 1-736)
chain: MKKSRSVMAVTADDNLKDYFECSLSKSYSSSSYTLGIDLWRGRRCCSGNLQLPPLSQRQSERARTPEGDGISRPTTLPLTTLPSIAITTVSQECFDVENGPSPGRSPLDPQASSSSGLVLHAAFPGHSQRRESFLYRSDSDYDLSPKAMSRNSSLPSEQHGDDLIVTPFAQVLASLRIVRNNFTLLTNLHGAPNKRSPAASQAPVTRVSLQEESYQKLAMETLEELDWCLDQLETIQTYRSVSEMASNKFKRMLNRELTHLSEMSRSGNQVSEYISNTFLDKQNDVEIPSPTQKDREKKKKQQLMTQISGVKKLMHSSSLNNTSISRFGVNTENEDHLAKELEDLNKWGLNIFNVAGYSHNRPLTCIMYAIFQERDLLKTFKISSDTFVTYMMTLEDHYHSDVAYHNSLHAADVAQSTHVLLSTPALDAVFTDLEILAAIFAAAIHDVDHPGVSNQFLINTNSELALMYNDESVLENHHLAVGFKLLQEEHCDIFQNLTKKQRQTLRKMVIDMVLATDMSKHMSLLADLKTMVETKKVTSSGVLLLDNYTDRIQVLRNMVHCADLSNPTKSLELYRQWTDRIMEEFFQQGDKERERGMEISPMCDKHTASVEKSQVGFIDYIVHPLWETWADLVQPDAQDILDTLEDNRNWYQSMIPQSPSPPLDERSRDCQGLMEKFQFELTLEEEDSEGPEKEGEGPNYFSSTKTLCVIDPENRDSLEETDIDIATEDKSLIDT
Regarding B4, the binding entry in assay [3] is listed as “binds weakly”.
